These results are taken from the supplement of paper PMC11417369.

± gives the standard deviation of the averaged measurements. The list shows a part of the results.

For this experiment, the system named is PfAP2-G AP2 domain (GST-tagged). The experiment is described as follows: gcPBM binding intensity (ln(normalized median fluorescence intensity)); higher = stronger DNA binding. The method in brief:
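GST-fused DNA-binding domains of P. falciparum, expressed in E. coli, were applied at about 25 μg on average for 1 h to an Agilent 4 × 180k array of primer-extended double-stranded 36-bp intergenic genomic probes and negative controls. Binding intensity is the highest Masliner-normalised natural-log median intensity across replicate spots of either probe orientation, measured with Alexa488 anti-GST antibody and a 488 nm scan.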
Take “TGAACATACATCAAAAGTACAAACTCGCATGTTATA [XGTACX_site3320]”: the “gcPBM binding intensity (ln)” value is 11.2 ± 0.73. The figure for “ACGGATTAAAAAATGTGTACGCACAAAAAAAAAAAT [XGTACX_site8259]” is 11.7 ± 0.97; for “TACGAAATCATATGTACACACACATATATATATATA [CACACA_site5216]” it is 11.3 ± 0.92.

Take “ATTATATATATATTATGTACATATATTGAAGTGGAT [XGTACX_site5916]”: the “gcPBM binding intensity (ln)” value was 11.4 ± 0.65.

For the sequence “GAAATGTGATAATATACACACACGCATATATATATA [CACACA_site4332]”, the “gcPBM binding intensity (ln)” value came out at 9.95 ± 0.16. With “TGTTCAGTATTGCACACACACAACAAAATAAAAAAA [CACACA_site6314]” the figure was 10.3 ± 0.33; with “ATATATATATATATATGTACTTAATGTTATTATATA [XGTACX_site4508]”, 11 ± 0.85; with “CACAACAGGGTTGAGGTGCGTAAAAATAGTAGAATA [GTGCAC_site9523]”, 10.26 ± 0.064. With “ACATAAAAATTATGCACACTTAATAAAGCGAAATGT [CACACA_site3183]” the figure was 10.2 ± 0.13; with “ATACTTTATTAATATTGTACAAAATAAGAAAAAAAA [XGTACX_site310]”, 10.8 ± 0.47; with “ATTCTATTTTTAAGTACACACATATATATATATATA [CACACA_site3658]”, 11.5 ± 0.87. With “ACATAATTATTATGCACACATATTTTTATGTATTTA [CACACA_site698]” the figure was 9.99 ± 0.028; with “TTTTTAATCCTTTGCGCATGTAAAATTATATATTTT [TGCATGCA_site306]”, 10.1 ± 0.11; with “TATATATATATGTGTACACAAAAAATATTATATTAT [CACACA_site5505]”, 11.9 ± 0.93. As to “GCTTATTTTAATTCTTGTACTTATTTATATACAAAT [XGTACX_site2099]”, the “gcPBM binding intensity (ln)” value turned out to be 11.2 ± 0.83. With “TAATGGTGTTCATGTGGTACACTTTATAAATTGGCA [XGTACX_site729]” the figure was 11.7 ± 1.1; with “TTGAAAATTCTTAAGGCACACACATATATAATATAT [CACACA_site8088]”, 10.3 ± 0.26; with “AAACTAACTCTAACATGTACATATATATATATATAT [XGTACX_site6949]”, 11.1 ± 0.66.

On to “ACTTTGCGTTAAAAGAGTACATAATATTTTTTTTTT [XGTACX_site7533]”, for which the “gcPBM binding intensity (ln)” value came out at 11.2 ± 0.73. “TTTTGAAGTAATACATGTACTTAAATTACTAAAAAA [XGTACX_site1955]”: the “gcPBM binding intensity (ln)” value came to 11.4 ± 0.76. As to “TATTGTCTTGTATATGCATGTAGACCAAATATGTAA [TGCATGCA_site9]”, the “gcPBM binding intensity (ln)” value was 10.5 ± 0.45.

For the sequence “CAAAAAAAAATCTGTAGTACTTATTAATATTGCTGT [XGTACX_site4767]”, the “gcPBM binding intensity (ln)” value came out at 11.1 ± 0.58. With “ATAAAGTCTATATTATGTACATATAATATAAATATT [XGTACX_site6703]”, the “gcPBM binding intensity (ln)” value worked out at 11.1 ± 0.5. In the case of “AAAAAACTTCACATATGTACTTAAAAAAAATTAAAA [XGTACX_site2368]”, the “gcPBM binding intensity (ln)” value amounted to 11.3 ± 0.95. The figure for “GAACATTACGTAAATAAATAAATAAAAATAAATACA [XGTACX_negctrl_site25]” is 10.1 ± 0.22; for “TCCCCATATGTTTTGTGTACATATATATTTTTTTGT [XGTACX_site75]” it is 11.5 ± 0.79; for “TAATATATTAATATATGTACATATTTATATATCTAC [XGTACX_site7117]” it is 11.2 ± 0.7. With “ATCACAAAAAAGTTCATACACACAACCTATTTATAT [CACACA_site2888]” the figure was 10.055 ± 0.007. The figure for “AAATCAAATTTTTAGAGTACTTAAGTTTTCTATATA [XGTACX_site7827]” is 11.2 ± 0.64. Consider “AAATAAGAGCGTAGCACACACGCATTTTATAAATGG [CACACA_site4571]”, for which the “gcPBM binding intensity (ln)” value was 10 ± 0.11. With “TCATATAAGTTTAGTAGTACTAAAAGTTAGAGAGAA [XGTACX_site3430]” the figure was 11.2 ± 0.81.

Regarding “AAAATTAAACATACATCACACATGCATTATATTATG [CACACA_site5517]”, the “gcPBM binding intensity (ln)” value turned out to be 9.97 ± 0.028. In the case of “TTAAACGTACATAATACACACACATGTAGACATATA [CACACA_site8635]”, the “gcPBM binding intensity (ln)” value was determined as 11.4 ± 0.97. Regarding “AAAATTAACGAGTGCACACATATTTAGATAAAATAC [CACACA_site2936]”, the “gcPBM binding intensity (ln)” value was found to be 10.7 ± 0.33. With “TGATTATTATAATTTAGTACATAATATTTTATATAA [XGTACX_site6125]” the figure was 11 ± 0.8; with “CAAGGAACCAGACACACACACATAAATGTATATATA [CACACA_site752]”, 10.1 ± 0.18. Consider “AAAACAAAAGAATTCACACATATATATATATATATA [CACACA_site4777]”, for which the “gcPBM binding intensity (ln)” value came out at 9.94 ± 0.38. The figure for “ATCTTTCAATAATTCACACATATATATATATATATA [CACACA_site4598]” is 10.3 ± 0.59; for “ATATATATATATGTACACATATATGTGTTTGTTTTT [GTGCAC_negctrl_site5]” it is 11.5 ± 0.83. With “CTATTACAAAGAAATTGTACATATATATATAAAAAC [XGTACX_site8800]” the figure was 11 ± 0.73; with “TTTTTATGAATTCTTTTGTTAATAATAATATGTTGT [TGCATGCA_negctrl_site198]”, 9.85 ± 0.12; with “TTTTAACGTAATTCAAATGAGCAGAATTTTTTAAAA [CACACA_negctrl_site1800]”, 9.825 ± 0.007.

As for “AATATTTTTAATTAATGTACATATTTATTATATAAA [XGTACX_site5112]”, the “gcPBM binding intensity (ln)” value worked out at 11.2 ± 0.76.

As for “AAATTTTTTCCGATTTGTACTTATATTTCTTTATTA [XGTACX_site1762]”, the “gcPBM binding intensity (ln)” value is 11.1 ± 0.61. “AATGAAGACTTTTTTACACACTTCATATCTTATAGA [CACACA_site7046]”: the “gcPBM binding intensity (ln)” value is 9.99 ± 0.028. Regarding “AGCCACAATACGGAAACACACAAGTTATTTTATCAT [CACACA_site2724]”, the “gcPBM binding intensity (ln)” value came to 10.1 ± 0.13. The figure for “TATATATTAAATTATAGTACACATTATATATAATTA [XGTACX_site4841]” is 11.2 ± 0.83; for “TATATATATATATATAGTACACATATCACATAAATG [XGTACX_site6379]” it is 11.1 ± 0.79; for ATAATATATGTATGTATGCACTTTTATTATTTTTTT it is 9.995 ± 0.021.

On to “TAAATAAATTTATGTACACACACAAATAAATACATA [CACACA_site5107]”, for which the “gcPBM binding intensity (ln)” value stood at 11.5 ± 1. As to “AAAAAAAAGAAAAACACACACATATTTATTTATAAC [CACACA_site6600]”, the “gcPBM binding intensity (ln)” value worked out at 9.79 ± 0.11. The figure for “ATAATATATATATTTTGTACACATGAAAAGGAGGAT [XGTACX_site5034]” is 11.3 ± 0.81; for “ATCGTAGTATAATATGAACACACACCCACCCACAAA [CACACA_site8616]” it is 10.7 ± 0.34; for “TATATTCCACTCATTGATTTTCTCTTCTCACAAAAA [CACACA_negctrl_site1016]” it is 10.1 ± 0.19. The figure for “TATAAAAAAAAATGTGGTACATATTTCCATTTTCCA [XGTACX_site4571]” is 11.3 ± 0.76; for “TATATAAATATACACCCACACACATATATATATATA [CACACA_site9247]” it is 10.4 ± 0.55. In the case of “AATAATTTAATACATACACACGTATATCTTTTTTTT [CACACA_site8632]”, the “gcPBM binding intensity (ln)” value is 9.955 ± 0.078.
